{
  "source": "PubChem BioAssay AID624171",
  "about": "(National Center for Advancing Translational Sciences (NCATS), 2012)",
  "note": "Screen size: about 410,000 compounds; about 1,200 (0.29%) were called active. This list was built around the results that the source calls inconclusive (neither active nor inactive); the mix of calls is not that of the screen. Calls come from the whole dose curve; as a rule, active = well fitted activation curve with a large enough effect; inconclusive = small, poorly fitted or top-dose-only effect; inactive = flat fitted curve, though single readings scatter. Where the call is inconclusive, the potency comes from a doubtful curve fit. Potency is the fitted concentration of half-maximal effect; tags give direction and shape of the fitted curve.",
  "data": [
    {"experiment": "qHTS of Nrf2 Activators; note: nearly all actives have a fitted effect of over 65% in size", "details": "AREc32 ARE-luciferase reporter (MCF7-derived line), luminescence, 24 h; activation: at 46.1 µM (top of the series)", "summary_of_the_method": "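Luciferase luminescence (Steady-Glo, 30 min at room temperature) served as the read-out of ARE activation in AREc32 cells treated with compounds for 24 hr at 37 deg C.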", "values": [
      {"smiles": "O=[N+]([O-])c1ccccc1COc1ccc(Cl)c2cccnc12", "Potency": "inconclusive: 20 µM [activator, partial curve, poor fit]"},
      {"smiles": "COc1ccccc1-c1sc2ccccc2c1-c1ccc(C(C)=O)cc1", "Potency": "inconclusive: 12.6 µM [activator, partial curve, poor fit]"},
      {"smiles": "CCC(=O)OCOc1ccc(/C=C2/CCC(CN(C)C)C2=O)cc1", "note": "(stereo not drawn)", "Potency": "inconclusive: 3.16 µM [activator, single point]"},
      {"smiles": "O=C(CNC(=O)/C=C/c1ccco1)N=Nc1c(O)[nH]c2ccccc12", "Potency": "inconclusive: 3.55 µM [activator, partial curve, poor fit]"},
      {"smiles": "Cn1cc(C(=O)N/N=C/c2cccs2)c2ccccc21", "Potency": "inconclusive: 20 µM [activator, single point]"},
      {"smiles": "CC(=O)Oc1cc2c(c3ccccc13)CCC2=O", "Potency": "active: 12.6 µM"},
      {"smiles": "O=C(CCNc1ccc(Br)cc1)c1cccc([N+](=O)[O-])c1", "Potency": "inconclusive: 22.4 µM [activator, single point]"},
      {"smiles": "Cc1nn(C)c(Oc2ccccc2)c1[N+](=O)[O-]", "Potency": "inconclusive: 28.2 µM [activator, single point]"},
      {"smiles": "O=C(Nc1ccc(S(=O)(=O)N2CCC(c3nc4ccccc4s3)CC2)cc1)c1ccccc1", "Potency": "inactive"},
      {"smiles": "CCOC(=O)c1sc(NC(=S)NC(=O)c2ccco2)nc1C", "Potency": "inconclusive: 11.2 µM [activator, partial curve, poor fit]"},
      {"smiles": "COC(=O)c1cccc(-c2ccc(C(c3c(C)[nH][nH]c3=O)c3c(C)[nH][nH]c3=O)o2)c1", "Potency": "inconclusive: 22.4 µM [activator, single point]"},
      {"smiles": "CCOc1ccc(CCNC(=O)c2cc(=O)[nH]c3ccc(S(=O)(=O)N4CCCCC4C)cc23)cc1OCC", "note": "(stereo not drawn)", "Potency": "inactive"},
      {"smiles": "Cc1ccc(O)c(NC(=O)c2noc(C(C)C)c2[N+](=O)[O-])c1", "Potency": "inconclusive: 22.4 µM [activator, single point]"},
      {"smiles": "Oc1oc(-c2ccccc2)nc1C=Nc1ccccc1", "Potency": "inconclusive: 11.2 µM [activator, single point]"},
      {"smiles": "COc1ccc(C(=O)Nc2ccccn2)cc1S(=O)(=O)N1CCOCC1", "Potency": "inactive"},
      {"smiles": "COc1cc(C(=O)Nc2cccc(-c3cn4cccnc4n3)c2)cc(OC)c1OC", "Potency": "inactive"},
      {"smiles": "NC(=O)Cn1c(O)c(N=NC(=O)CNC(=O)/C=C/c2ccccc2)c2ccccc21", "Potency": "inactive"},
      {"smiles": "CC(=NNC(=O)CSc1nc2ccccc2o1)c1ccco1", "Potency": "inconclusive: 6.31 µM [activator, full curve, poor fit]"},
      {"smiles": "CCCc1cc(C(N)=O)c(NC(=O)c2ccco2)s1", "Potency": "inconclusive: 3.55 µM [activator, full curve, poor fit]"},
      {"smiles": "CCc1nc(N)c(C#N)c(-c2ccco2)c1C", "Potency": "active: 2.51 µM"},
      {"smiles": "C[C@H]1CN([C@@H](C)CO)C(=O)CCCn2nncc2CO[C@@H]1CN(C)Cc1ccccc1C(F)(F)F", "Potency": "inactive"},
      {"smiles": "Cc1cc2ccccn2c1C(=O)c1ccc([N+](=O)[O-])o1", "Potency": "inconclusive: 3.98 µM [activator, single point]"},
      {"smiles": "O=C(/C=C/c1ccc(O)c(O)c1)OCCc1ccccc1", "Potency": "inconclusive: 14.1 µM [activator, partial curve, poor fit]"},
      {"smiles": "COc1ccc(Cl)cc1NC(=O)c1noc2c1CCCC2", "Potency": "inconclusive: 7.08 µM [activator, partial curve]"},
      {"smiles": "O=C1CN(C(=O)COC(=O)CCS(=O)(=O)c2ccccc2Cl)c2ccccc2N1", "Potency": "inconclusive: 35.5 µM [activator, single point]"},
      {"smiles": "Cc1cc(NC(=O)c2ccc3[nH]c(C)c(C)c3c2)ccn1", "Potency": "inactive"},
      {"smiles": "CC(C)Oc1ccccc1/C=N/Nc1ccccc1[N+](=O)[O-]", "Potency": "active: 10 µM"},
      {"smiles": "CCCC(=O)N1CCN(c2ccc(NC(=O)c3ccc([N+](=O)[O-])o3)cc2Cl)CC1", "Potency": "inconclusive: 3.98 µM [activator, single point]"},
      {"smiles": "S=c1[nH]nc(-c2cccnc2)n1/N=C/c1ccco1", "Potency": "inconclusive: 31.6 µM [activator, single point]"},
      {"smiles": "CS/C(=C\\[N+](=O)[O-])Nc1ccc(Cl)cc1", "Potency": "inconclusive: 35.5 µM [activator, partial curve, poor fit]"},
      {"smiles": "O=C(Nc1nccs1)c1cnc2sccn2c1=O", "Potency": "inconclusive: 8.91 µM [activator, partial curve, poor fit]"},
      {"smiles": "Cn1c(SCC(=O)N2CCN(c3ccccc3)CC2)nnc1-c1ccncc1", "Potency": "inactive"},
      {"smiles": "CC(C)CNC(=S)NC(=O)c1csc([N+](=O)[O-])c1", "Potency": "inconclusive: 35.5 µM [activator, partial curve, poor fit]"},
      {"smiles": "O=C(N/N=C\\C=C\\c1ccco1)c1cc(-c2ccc3ccccc3c2)n[nH]1", "Potency": "inconclusive: 3.55 µM [activator, partial curve, poor fit]"},
      {"smiles": "Cc1ccc(-c2noc(N=O)c2NO)cc1", "Potency": "inconclusive: 15.8 µM [activator, single point]"},
      {"smiles": "COc1ccc2[nH]c(=O)c(CN(Cc3nnnn3Cc3ccccc3)CC3CCCO3)cc2c1", "note": "(stereo not drawn)", "Potency": "inactive"},
      {"smiles": "Cc1nc2cc(-c3cccc(F)c3)nn2c(N2CCN(C(=O)c3ccco3)CC2)c1C", "Potency": "active: 12.6 µM"},
      {"smiles": "O=[N+]([O-])c1ccccc1C1Nc2cccc3cccc(c23)N1", "Potency": "inconclusive: 14.1 µM [activator, single point]"},
      {"smiles": "COCCCNC(=O)c1ccc(-n2c(-c3ccccc3)cc3c2CCCCC3)cc1", "Potency": "inconclusive: 20 µM [activator, partial curve, poor fit]"},
      {"smiles": "CC[C@H](C)C(=O)O[C@H]1CCC=C2C=C[C@H](C)[C@H](CC[C@@H]3C[C@@H](O)CC(=O)O3)[C@H]21", "Potency": "inactive"},
      {"smiles": "Cn1c(=O)c(Nc2ccc(O)cc2)c2c3c(cccc31)C(=O)c1ccccc1-2", "Potency": "inconclusive: 15.8 µM [activator, partial curve, poor fit]"},
      {"smiles": "CC1(C)CC(=O)c2sc(NC(=O)CCS(=O)(=O)c3ccccc3)nc2C1", "Potency": "inconclusive: 3.98 µM [activator, single point]"},
      {"smiles": "CCOC(=O)c1ccccc1NC(=O)CSc1ncc(C(=O)OCC)c(N)n1", "Potency": "inactive"},
      {"smiles": "Cn1c(SCC(=O)N/N=C/C=C\\c2ccco2)nc2ccccc21", "Potency": "inconclusive: 2.82 µM [activator, full curve, poor fit]"},
      {"smiles": "O=C1CC(c2ccco2)Sc2nc3ccccc3n21", "note": "(stereo not drawn)", "Potency": "inconclusive: 20 µM [activator, single point]"},
      {"smiles": "COc1ccc(N=Cc2oc3ccc4ccccc4c3c2O)cc1", "Potency": "inconclusive: 3.55 µM [activator, partial curve, poor fit]"},
      {"smiles": "Cc1ccc(-c2noc(-c3cccs3)n2)cc1", "Potency": "active: 11.2 µM"},
      {"smiles": "O=C(/C=C/c1ccco1)NC(=S)Nc1ccc(Cl)cn1", "Potency": "inconclusive: 22.4 µM [activator, single point]"},
      {"smiles": "O=C(COC(=O)c1cc(S(=O)(=O)N2CCc3ccccc3C2)ccc1Cl)NCc1ccco1", "Potency": "inconclusive: 22.4 µM [activator, single point]"},
      {"smiles": "C=CS(=O)(=O)c1c2cc(OC)ccc2nc2ccc(OC)cc12", "Potency": "inconclusive: 5.62 µM [activator, single point]"},
      {"smiles": "CCCS(=O)(=O)c1c(S(=O)(=O)CCC)c2cc(-c3ccncc3)ccn2c1C(=O)OC", "Potency": "inconclusive: 17.8 µM [activator, single point]"},
      {"smiles": "CSc1nsc(/C=C/Nc2ccc(O)cc2C)c1C#N", "Potency": "inconclusive: 17.8 µM [activator, single point]"},
      {"smiles": "CCC(=O)Oc1ccc2c(c1)O/C(=C\\c1ccco1)C2=O", "Potency": "active: 7.94 µM"},
      {"smiles": "COc1ccc(Cl)cc1NC(=O)Cn1nnc2sc(-c3ccccc3)cc2c1=O", "Potency": "inconclusive: 6.31 µM [activator, partial curve]"},
      {"smiles": "CCOC(=O)c1[nH]c(C)c(C(=O)/C=C/c2ccc(C(=O)O)cc2)c1C", "Potency": "inconclusive: 20 µM [activator, single point]"},
      {"smiles": "O=C1N=C(N2CCOCC2)S/C1=C/c1cc2c(cc1[N+](=O)[O-])OCO2", "Potency": "inconclusive: 20 µM [activator, partial curve, poor fit]"},
      {"smiles": "COc1ccc(Nc2nc(N)nc(CCl)n2)cc1", "Potency": "inconclusive: 12.6 µM [activator, partial curve]"},
      {"smiles": "CSc1nsc(SC)c1C(=O)Nc1ccc(Cl)cc1", "Potency": "inconclusive: 2.51 µM [activator, full curve, poor fit]"},
      {"smiles": "CCCNC(=O)c1nn2c(C(F)(F)F)cc(-c3ccccc3)nc2c1Br", "Potency": "inconclusive: 12.6 µM [activator, single point]"},
      {"smiles": "COc1ccccc1C(=O)NNC(=O)c1ccccc1F", "Potency": "inconclusive: 2.51 µM [activator, partial curve, poor fit]"},
      {"smiles": "O=C(c1ccc(Cl)cc1)c1oc2ccccc2c1CS(=O)c1ccc(Cl)cc1", "note": "(stereo not drawn)", "Potency": "inactive"},
      {"smiles": "O=[N+]([O-])c1cc(-c2nc(-c3ccccc3)no2)ccc1NCc1cccnc1", "Potency": "inconclusive: 8.91 µM [activator, partial curve, poor fit]"},
      {"smiles": "Cc1cccc(C(C)(C)C)c1OCCN1CCCC1", "Potency": "inactive"},
      {"smiles": "CCN1C(=O)/C(=C\\N2CCCc3ccccc32)SC1=S", "Potency": "inactive"},
      {"smiles": "Cc1ccc(NC(=O)C2CCC(CNS(=O)(=O)c3ccc4c(c3)CCCC(=O)N4)CC2)cc1F", "note": "(stereo not drawn)", "Potency": "inactive"},
      {"smiles": "COc1ccc(C(CC(=O)c2ccc(O)cc2)S(=O)(=O)c2ccc(C)cc2)cc1", "note": "(stereo not drawn)", "Potency": "active: 12.6 µM"},
      {"smiles": "N=C1C(c2nc3ccccc3s2)=C(O)CN1C1CCC(O)CC1", "note": "(stereo not drawn)", "Potency": "inconclusive: 14.1 µM [activator, partial curve, poor fit]"},
      {"smiles": "C[n+]1c2n(c3ccccc31)N=C(c1ccccc1)CS2", "Potency": "active: 8.91 µM"}
    ]}
  ]
}
